# Assay results published in the supplement of paper PMC8728848.
# The other results are listed elsewhere or left out.
# B1: Epa1-NP-mutant-E227A (Candida glabrata), Q6VBJ0 (protein)
# chain: MILNPALFLNKCVCIYTTLILLLLTNGGYATSSNDISLASKDPTTFPLGCSPDITTPKKGLSMELYSYDFRKKGSYPCWDAAYLDPNYPRTGYKSHRLLAKVDGVTGNINFYYHATKGCTPQLGHLPASYNYPKPLTMTNFTMLLYGYFRPKVTGFHTFTISADDLLFVNFGAGNAFDCCRRDSSADHFGNYQAYAIWGSKTAKDELTVHLDAGVYYPIRLFYNNRAYDGALSFTFKTESNENTVSDFSEYFFSLDDTEEGCPGLISYDSSCASVKTSKIIGIDYHTETPNENLVPITKTIYHLGIPCTGTTTTPLCGSGFYDPLANKCVTINTSSTSSVTKTTSHTTSKEVSFHSSISSQKTLIPKSIPSPYGPIKSQSIPTEMETSSEISSSEYAFSDVISTPSHSPYTKKHSSLNSSSYTSTVIHSLTSYSISQGIFSTSLSEQNITSKSSTDKFSTATSMSNNITQSSIIISQFSTNNENYTTTSMHTSSDKISTETLNNSISTTTSILFSNSSTILKNNTTIISSDKDTHYHPVNPTIVCSTNKTEIICASITQPSISNSNNHWSSSVLKFNSTTVRSTLPSSAGSNETSINVPFSSSTESNTSTSSTSTSNSKMVRSTLPSSAGSNETSISVPFSSSTESNTSTSSTSTSNSKMVRSTLPSSAGSNETSINVPFSSSTESNTSTSSTSTSNSKTVRSTPFSSAGIIMTSLSQRNNKSASSYASSNSKCYNTADSCRKVHSTPSYLLTSSYTSEGVDYDCSLVSTKLKINDTNCVNNKHTTKSCLKTSVTTTIPTLEIKTARKSSSNTIGLHSYPTSSPNKSISSAPIIGYISSFKTIKTASPSYQTSDLTTITTITSLNNPGSTAVENTHESNDKSRKTSSNDISSKHSVIKETKDAVESSNKSHQTNTLKCSSIIIASSSHNSYESLGGTTLTLTLSKVYSPQNNDTLPFLEISEVNPSRTVLPESSKMMQYLTSTEERNKTARNTIATNIVSISTFHFEGEGNAIRMGYTQLLLMLIGIIVMNIGT
# Experiments:
# Experiment in all cases: glycan array binding signal (z-score within array); higher = stronger binding
# Conditions in all cases: glycan notation: IUPAC condensed, linker removed; mutation: E227A
# [1] = target: Neu5Ac(a2-3)Gal(b1-4)GlcNAc(b1-3)[Neu5Ac(a2-3)Gal(b1-4)GlcNAc(b1-6)]GalNAc
# Summary of the method: (§1)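 Glycan array data came from 3228 arrays in the Consortium for Functional Glycomics database, and only arrays with an available protein sequence were kept. Glycan names were put into IUPAC-condensed notation, and columns mapping to the same glycan were averaged. The binding signal is a within-array Z-score, averaged across arrays of one protein sequence run at different concentrations or buffers and across linkers. A negative Z-score can be read as non-binding.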
# [2] = target: Neu5Ac(a2-3)Gal(b1-4)GlcNAc(b1-6)GalNAc
# Summary of the method: as §1
# [3] = target: Neu5Ac(a2-3)Gal(b1-4)GlcNAc(b1-6)[Gal(b1-3)]GalNAc
# Summary of the method: as §1
# [4] = target: Neu5Ac(a2-3)Gal(b1-4)GlcNAc(b1-6)[Neu5Ac(a2-3)Gal(b1-3)]GalNAc
# Summary of the method: as §1
# [5] = target: Neu5Ac(a2-3)Gal(b1-4)GlcNAc6S
# Summary of the method: as §1
# [6] = target: Neu5Ac(a2-3)Gal(b1-4)[Fuc(a1-3)]GlcNAc
# Summary of the method: as §1
# [7] = target: Neu5Ac(a2-3)Gal(b1-4)[Fuc(a1-3)]GlcNAc(b1-2)Man
# Summary of the method: as §1
# [8] = target: Neu5Ac(a2-3)Gal(b1-4)[Fuc(a1-3)]GlcNAc(b1-3)Gal
# Summary of the method: as §1
# [9] = target: Neu5Ac(a2-3)Gal(b1-4)[Fuc(a1-3)]GlcNAc(b1-3)Gal(b1-4)GlcNAc
# Summary of the method: as §1
# [10] = target: Neu5Ac(a2-3)Gal(b1-4)[Fuc(a1-3)]GlcNAc(b1-3)Gal(b1-4)[Fuc(a1-3)]GlcNAc(b1-3)Gal(b1-4)[Fuc(a1-3)]GlcNAc
# Summary of the method: as §1
# [11] = target: Neu5Ac(a2-3)Gal(b1-4)[Fuc(a1-3)]GlcNAc(b1-3)GalNAc
# Summary of the method: as §1
# [12] = target: Neu5Ac(a2-3)Gal(b1-4)[Fuc(a1-3)]GlcNAc(b1-6)[Gal(b1-3)]GalNAc
# Summary of the method: as §1
# [13] = target: Neu5Ac(a2-3)Gal(b1-4)[Fuc(a1-3)]GlcNAc(b1-6)[Neu5Ac(a2-3)Gal(b1-3)]GalNAc
# Summary of the method: as §1
# [14] = target: Neu5Ac(a2-3)Gal(b1-4)[Fuc(a1-3)]GlcNAc6S
# Summary of the method: as §1
# [15] = target: Neu5Ac(a2-3)Gal6S(b1-4)GlcNAc
# Summary of the method: as §1
# [16] = target: Neu5Ac(a2-3)Gal6S(b1-4)[Fuc(a1-3)]GlcNAc
# Summary of the method: as §1
# Neu5Ac(a2-3)GalNAc = target: Neu5Ac(a2-3)GalNAc
# Summary of the method: as §1
# [17] = target: Neu5Ac(a2-3)GalNAc(b1-4)GlcNAc
# Summary of the method: as §1
# [18] = target: Neu5Ac(a2-3)[GalNAc(b1-4)]Gal(b1-4)Glc
# Summary of the method: as §1
# [19] = target: Neu5Ac(a2-3)[GalNAc(b1-4)]Gal(b1-4)GlcNAc
# Summary of the method: as §1
# [20] = target: Neu5Ac(a2-3)[GalNAc(b1-4)]Gal(b1-4)GlcNAc(b1-3)GalNAc
# Summary of the method: as §1
# [21] = target: Neu5Ac(a2-3)[Neu5Ac(a2-6)]GalNAc
# Summary of the method: as §1
# Neu5Ac(a2-6)Gal = target: Neu5Ac(a2-6)Gal
# Summary of the method: as §1
# [22] = target: Neu5Ac(a2-6)Gal(b1-3)GlcNAc(b1-3)[Gal(b1-4)GlcNAc(b1-6)]Gal(b1-4)Glc
# Summary of the method: as §1
# Neu5Ac(a2-6)Gal(b1-4)Glc = target: Neu5Ac(a2-6)Gal(b1-4)Glc
# Summary of the method: as §1
# [23] = target: Neu5Ac(a2-6)Gal(b1-4)GlcNAc
# Summary of the method: as §1
# [24] = target: Neu5Ac(a2-6)Gal(b1-4)GlcNAc(b1-2)Man
# Summary of the method: as §1
# [25] = target: Neu5Ac(a2-6)Gal(b1-4)GlcNAc(b1-2)Man(a1-3)Man(b1-4)GlcNAc(b1-4)GlcNAc
# Summary of the method: as §1
# [26] = target: Neu5Ac(a2-6)Gal(b1-4)GlcNAc(b1-2)Man(a1-3)[Gal(b1-4)GlcNAc(b1-2)Man(a1-6)]Man(b1-4)GlcNAc(b1-4)GlcNAc
# Summary of the method: as §1
# [27] = target: Neu5Ac(a2-6)Gal(b1-4)GlcNAc(b1-2)Man(a1-3)[GlcNAc(b1-2)Man(a1-6)]Man(b1-4)GlcNAc(b1-4)GlcNAc
# Summary of the method: as §1
binder,measurement,setting,value
B1,glycan array binding signal (z-score),[1],-0.186
same,glycan array binding signal (z-score),[2],-0.176
same,glycan array binding signal (z-score),[3],0.715
same,glycan array binding signal (z-score),[4],-0.222
same,glycan array binding signal (z-score),[5],-0.172
same,glycan array binding signal (z-score),[6],-0.193
same,glycan array binding signal (z-score),[7],-0.224
same,glycan array binding signal (z-score),[8],-0.199
same,glycan array binding signal (z-score),[9],-0.163
same,glycan array binding signal (z-score),[10],-0.219
same,glycan array binding signal (z-score),[11],-0.12
same,glycan array binding signal (z-score),[12],-0.152
same,glycan array binding signal (z-score),[13],-0.16
same,glycan array binding signal (z-score),[14],-0.21
same,glycan array binding signal (z-score),[15],-0.211
same,glycan array binding signal (z-score),[16],-0.204
same,glycan array binding signal (z-score),Neu5Ac(a2-3)GalNAc,-0.211
same,glycan array binding signal (z-score),[17],-0.23
same,glycan array binding signal (z-score),[18],-0.186
same,glycan array binding signal (z-score),[19],-0.187
same,glycan array binding signal (z-score),[20],-0.209
same,glycan array binding signal (z-score),[21],-0.162
same,glycan array binding signal (z-score),Neu5Ac(a2-6)Gal,-0.148
same,glycan array binding signal (z-score),[22],-0.175
same,glycan array binding signal (z-score),Neu5Ac(a2-6)Gal(b1-4)Glc,-0.183
same,glycan array binding signal (z-score),[23],-0.206
same,glycan array binding signal (z-score),[24],-0.178
same,glycan array binding signal (z-score),[25],-0.2
same,glycan array binding signal (z-score),[26],-0.204
same,glycan array binding signal (z-score),[27],-0.205
